# Values joined by “and” are separate entries in the source; they are usually repeats but may differ in a detail not shown here. Identical values can stand only once. The inconclusive results got no clear call from the source; some entries with a clear call stand among them for comparison. For some assays here: Where the call is inconclusive, the potency comes from a doubtful curve fit. Active and inactive are the calls of the source. Unless noted, calls follow the shape of the dose curve; as a rule, active = well fitted curve in the direction sought with a large enough effect; inconclusive = small, poorly fitted or top-dose-only effect, or another doubt; inactive = no such curve, though single readings can be large; an effect the other way counts as inactive or inconclusive.
# Assays:
# [1] = qHTS Screen of the MIPE 4.0 Collection Against Ewings Sarcoma (RDES) (AID 1259252); also: nearly all actives have a fitted effect of over 35% in size;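 as to viability (percent of control): 100% = DMSO-treated cells and 0% = medium-only wells without cells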
# Outline: (§1)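 Measured: ATP luminescence (CellTiter-Glo) 10 min after reagent addition, following 48 h drug treatment. Relative luciferase units converted to percent activity, with no-cell wells as full and DMSO wells as zero inhibition.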
# [2] = qHTS Screen of the MIPE 4.0 Collection Against Ewings Sarcoma (TC71) (AID 1259253); also: nearly all actives have a fitted effect of over 40% in size
# Outline: as §1
# [3] = qHTS Screen of the MIPE 4.0 Collection Against Ewings Sarcoma (EW8) (AID 1259255); also: nearly all actives have a fitted effect of over 35% in size;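 as to viability: 100% = DMSO-treated cells and 0% = medium-only wells without cells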
# Outline: as §1
# [4] = Identifying Small Molecule Inhibitors of Pancreatic Cancer Stem Cells (A2780, Spheroid) (AID 1259357); conditions: Potency: A2780 spheroid viability; viability (percent of control): at 46.1 µM (top of the series);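 also: compound exposure lasted 48 h before the ATP luminescence read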;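 as to viability (percent of control): 100% = DMSO treated cells and 0% = wells without cells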
# Outline: (§2)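 Cytotoxicity read by CellTiter-Glo luminescence after 48 h compound exposure at 37C; percent activity scaled between DMSO-treated cells and cell-free wells. Spheroid formats used cells pre-formed 14 days in stem cell media on hydrogel.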
# [5] = Identifying Small Molecule Inhibitors of Pancreatic Cancer Stem Cells (Panc1, Spheroid) (AID 1259359); conditions: Panc1 spheroid cancer stem cell viability; viability, % of control: at 46.1 µM (top of the series);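 also: compound exposure lasted 48 h before reading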
# Outline: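 Adherent (2D) versus sphere (3D) formats; spheres generated 14 d in SCM beforehand. Compound transferred by pin tool after 4 h, 48 h incubation, CellTiter-Glo endpoint.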
# [6] = Identifying Small Molecule Inhibitors of Pancreatic Cancer Stem Cells (Panc1, Adherent) (AID 1259362); conditions: Potency: viability; viability, % of control: at 46.1 µM (top of the series);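 as to viability, % of control: compound exposure lasted 48 h before the viability read; plate controls were DMSO-treated cells for no effect and cell-free media wells for full effect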
# Outline: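 After a 4 h attachment period, compounds were pinned into wells and cultures held 48 h under standard incubator conditions. Viability was then measured as CellTiter-Glo luminescence following 10 min at room temperature.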
# [7] = P-glycoprotein substrates identified in KB-8-5-11 adenocarcinoma cell line, qHTS therapeutic library screen (AID 1346987); also: nearly all actives have a fitted effect of over 65% in size
# Outline: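 Steps: plate 500 KB-8-5-11 cells/well in DMEM + 10% FCS (colchicine removed); pin compounds in dose-response; incubate 72 h, 37 degree C, 5% CO2; add CellTiter-Glo, 5 min; read luminescence.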
# [8] = Identifying Small Molecule Inhibitors of Pancreatic Cancer Stem Cells (SN12C, Spheroid) (AID 1259360); conditions: Potency: SN12C spheroid viability
# Outline: as §2
# [9] = P-glycoprotein substrates identified in KB-3-1 adenocarcinoma cell line, qHTS therapeutic library screen (AID 1346986);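 also: potency is for cytotoxicity meaning loss of cell viability; nearly all actives have a fitted effect of over 60% in size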
# Outline: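 Resistance attributable to P-gp was assessed by comparing AC50 in KB-8-5-11 with parental KB-3-1 and by tariquidar reversal. Cells were exposed 72 h and viability read by CellTiter-Glo.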
# [10] = qHTS assay to identify small molecule inhibitors of chordoma cells - UCH-1 (AID 1259355); also: nearly all actives have a fitted effect of over 55% in size
# Outline: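 Luminescent ATP read-out (CellTiter-Glo, 30min at room temperature) measured viability of UCH-1 cells exposed for 48hr to test drugs at 15 concentrations, co-dosed with a five-agent combination of auranofin, camptothecin, doxorubicin, rubitecan and topotecan.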
# [11] = qHTS assay to identify small molecule inhibitors of chordoma cells - UCH-2 (AID 1259356); conditions: UCH-2 chordoma viability, CellTiter-Glo ATP luminescence, 48 h
# [12] = qHTS Screen of the MIPE 4.0 Collection Against Ewings Sarcoma (TC32) (AID 1259256); also: nearly all actives have a fitted effect of over 45% in size
# Outline: as §1
# [13] = Natriuretic polypeptide receptor (hNpr1) antagonism - Pilot counterscreen GloSensor control cell line (AID 1347045; calls by dose curve)
# Outline: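 Luminescence was read before and 20 min after adding 50 uM SNP, which stimulates soluble guanylyl cyclase. The HEK293 cells expressing the GloSensor cGMP sensor had been preloaded with 2% reagent for 2 h and treated with compound.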
# [14] = target: Atrial natriuretic peptide receptor 1 (Homo sapiens) (UniProt P16066); assay: Natriuretic polypeptide receptor (hNpr1) antagonism - Pilot screen (AID 1347049; calls by dose curve;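 also: agonist-evoked cGMP luminescence read 20 min after hNppA addition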)
# Outline: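 HEK293 cells co-expressing hNpr1 and the GloSensor pGS-40F cGMP luciferase sensor were preloaded with 2% GloSensor reagent for 2 h. Compounds were added for 30 min at room temperature, then cells were stimulated with 0.1 nM hNppA for 20 min before luminescence readout.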
# Potency is read from the fitted curve at half-maximal effect; tags tell the direction and shape of the fitted curve.
# Sequence of UniProt P16066 (P16066 whole entry, looked up): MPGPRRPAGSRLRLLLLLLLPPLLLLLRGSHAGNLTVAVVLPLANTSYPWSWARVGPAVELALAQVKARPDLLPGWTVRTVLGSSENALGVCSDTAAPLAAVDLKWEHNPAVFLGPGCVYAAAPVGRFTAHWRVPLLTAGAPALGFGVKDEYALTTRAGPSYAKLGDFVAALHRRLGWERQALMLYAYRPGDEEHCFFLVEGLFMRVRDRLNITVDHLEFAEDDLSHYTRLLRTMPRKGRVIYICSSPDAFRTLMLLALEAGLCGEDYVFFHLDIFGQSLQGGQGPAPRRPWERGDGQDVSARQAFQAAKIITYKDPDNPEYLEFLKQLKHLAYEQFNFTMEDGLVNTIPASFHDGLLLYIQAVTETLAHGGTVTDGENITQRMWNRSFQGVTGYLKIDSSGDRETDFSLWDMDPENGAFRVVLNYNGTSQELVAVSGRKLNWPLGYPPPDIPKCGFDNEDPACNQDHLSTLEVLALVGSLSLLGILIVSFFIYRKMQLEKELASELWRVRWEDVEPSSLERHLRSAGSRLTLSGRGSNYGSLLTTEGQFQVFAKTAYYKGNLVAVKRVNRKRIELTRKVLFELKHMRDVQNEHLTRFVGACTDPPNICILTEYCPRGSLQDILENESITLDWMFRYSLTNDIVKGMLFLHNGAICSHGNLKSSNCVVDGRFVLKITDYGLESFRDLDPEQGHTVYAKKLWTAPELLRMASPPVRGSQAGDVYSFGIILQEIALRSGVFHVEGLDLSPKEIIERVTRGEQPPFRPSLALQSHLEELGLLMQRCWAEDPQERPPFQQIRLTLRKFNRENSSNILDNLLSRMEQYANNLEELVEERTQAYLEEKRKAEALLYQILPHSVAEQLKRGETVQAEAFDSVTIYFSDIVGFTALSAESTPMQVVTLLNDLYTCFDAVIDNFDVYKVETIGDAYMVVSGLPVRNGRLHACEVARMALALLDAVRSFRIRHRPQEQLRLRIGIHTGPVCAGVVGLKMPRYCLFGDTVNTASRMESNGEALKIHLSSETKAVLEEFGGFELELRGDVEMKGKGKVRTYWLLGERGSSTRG
smiles,measurement,setting,value
O=C(O)c1ccc(-c2cc3cccnc3c(-c3ccc4nonc4c3)n2)cc1,Potency,[1],"inconclusive: 26.4 µM [inhibitor, single point]"
same,Potency,[2],"inconclusive: 26.4 µM [inhibitor, single point]"
same,Potency,[3],"inconclusive: 33.2 µM [inhibitor, single point]"
same,viability (percent of control),[4],inconclusive: 95.5%
same,Potency,[5],"inconclusive: 0.0093 µM [cytotoxic, full curve, poor fit]"
same,Potency,[6],"inconclusive: 0.0019 µM [cytotoxic, full curve, poor fit]"
same,Potency,[7],"inconclusive: 33.2 µM [inhibitor, single point]"
CC(C)(C)C(=O)Oc1ccc2c(c1)nc(NC(=O)c1cccc([N+](=O)[O-])c1)n2CCCO,Potency,[1],"inconclusive: 37.2 µM [inhibitor, single point]"
same,Potency,[2],inactive
same,Potency,[3],"inconclusive: 23.5 µM [inhibitor, partial curve]"
same,Potency,[4],inactive
same,Potency,[8],inactive
same,Potency,[6],inactive
same,Potency,[9],"inconclusive: 23.1 µM [inhibitor, single point]"
same,Potency,[7],"inconclusive: 0.833 µM [inhibitor, full curve, poor fit]"
COc1ccc2c(Oc3ccc(NC(=O)c4c(C)n(CC(C)(C)O)n(-c5ccccc5)c4=O)nc3)ccnc2c1,Potency,[1],"inconclusive: 23.5 µM [inhibitor, single point]"
same,Potency,[2],"inconclusive: 33.2 µM [inhibitor, single point]"
same,Potency,[3],"inconclusive: 37.2 µM [inhibitor, single point]"
same,Potency,[7],"inactive and inconclusive: 20.6 µM [inhibitor, single point]"
CCOC(=O)N[C@@H]1CC[C@@H]2[C@@H](C1)C[C@H]1C(=O)O[C@H](C)[C@H]1[C@@H]2C=Cc1ccc(-c2cccc(F)c2)cn1,Potency,[1],"inconclusive: 29.6 µM [inhibitor, single point]"
same,Potency,[2],active: 20.9 µM
same,Potency,[3],"inconclusive: 23.5 µM [inhibitor, partial curve]"
same,Potency,[4],"inconclusive: 18.7 µM [cytotoxic, partial curve]"
same,Potency,[8],active: 14.8 µM
same,Potency,[6],inactive
same,Potency,[7],"inconclusive: 37.2 µM [inhibitor, single point]"
Cc1cc(=O)c2c(O)c3c(O)cc(=O)c4c3c3c(cc(O)c1c23)C(C)(C)C=4O,Potency,[1],"inconclusive: 29.6 µM [inhibitor, single point]"
same,Potency,[2],"inconclusive: 33.2 µM [inhibitor, single point]"
same,Potency,[3],"inconclusive: 33.2 µM [inhibitor, single point]"
same,Potency,[10],active: 6.31 µM
same,Potency,[11],active: 6.51 µM
same,Potency,[7],active: 1.46 µM and active: 4.69 µM
COc1ccc(-c2c(-c3ccc(O)cc3O)n[nH]c2C)cc1,Potency,[1],"inconclusive: 54 µM [inhibitor, single point]"
same,Potency,[2],"inconclusive: 54 µM [inhibitor, single point]"
same,Potency,[3],"inconclusive: 48.1 µM [inhibitor, single point]"
same,Potency,[4],inactive
same,"viability, % of control",[6],inconclusive: 94.9%
same,Potency,[7],"inconclusive: 42.9 µM [inhibitor, single point]"
O=C(NC1CCOCC1)c1ccc(-c2cc(-c3cn[nH]c3-c3ccccn3)ccn2)cc1,Potency,[1],"inconclusive: 20.9 µM [inhibitor, single point]"
same,Potency,[2],"inconclusive: 37.2 µM [inhibitor, single point]"
same,Potency,[3],inactive
same,Potency,[9],"inconclusive: 23.1 µM [inhibitor, single point]"
same,Potency,[7],inactive
O=C(CCc1ccc(O)cc1)c1c(O)cc(O)cc1O,Potency,[1],active: 0.166 µM
same,Potency,[2],"inconclusive: 0.418 µM [inhibitor, full curve]"
same,Potency,[3],active: 5.9 µM
same,Potency,[12],"inconclusive: 0.743 µM [inhibitor, full curve]"
same,Potency,[13],"inconclusive: 26.1 µM [inhibitor, single point]"
N#Cc1ccc(Oc2ccc3c(c2)COB3O)cc1,Potency,[1],inactive
same,Potency,[2],"inconclusive: 26.4 µM [inhibitor, single point]"
same,Potency,[3],"inconclusive: 37.2 µM [inhibitor, single point]"
same,Potency,[7],"inconclusive: 33.2 µM [inhibitor, single point]"
CCOC(=O)Nc1ccc(NCc2ccc(F)cc2)nc1N,Potency,[1],"inconclusive: 23.5 µM [inhibitor, partial curve]"
same,Potency,[2],"inconclusive: 23.5 µM [inhibitor, single point]"
same,Potency,[3],"inconclusive: 23.5 µM [inhibitor, partial curve]"
same,Potency,[12],"inconclusive: 20.9 µM [inhibitor, partial curve, poor fit]"
same,Potency,[13],"inconclusive: 16.5 µM [inhibitor, single point]"
same,Potency,[14],"inconclusive: 37.9 µM [inhibitor, single point]"
Cc1cc2c(cc1C1(c3ccc(C(=O)O)cn3)CC1)C(C)(C)CCC2(C)C,Potency,[1],inactive
same,Potency,[2],inactive
same,Potency,[3],"inconclusive: 16.6 µM [inhibitor, partial curve, poor fit]"
same,Potency,[4],inactive
same,Potency,[5],"inconclusive: 2.96 µM [rising, partial curve, poor fit]"
same,Potency,[8],"inconclusive: 0.0209 µM [rising, full curve, poor fit]"
same,"viability, % of control",[6],inconclusive: 122%
